From PubChem BioAssay AID485294 (National Center for Advancing Translational Sciences (NCATS), 2010)
Among all 370,000 compounds or so, about 150 (0.041%) were called active. This list was built around the results that the source calls inconclusive (neither active nor inactive); the mix of calls is not that of the screen. Calls follow the shape of the dose curve; as a rule, active = well fitted inhibition curve with a large enough effect; inconclusive = small, poorly fitted or top-dose-only effect; inactive = flat fitted curve, though single readings scatter. No potency is given beside an inconclusive call; the fits are too rough.

molecular target: Beta-lactamase (Escherichia coli (strain K12)) (UniProt P00811); test: qHTS Inhibitors of AmpC Beta-Lactamase (assay with detergent); conditions: AmpC hydrolysis of nitrocefin, absorbance 480 nm, 0.01% Triton; activity change, negative = inhibition: at 114 µM (top of the series); also: nearly all actives have a fitted effect of over 25% in size;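 as to activity change, negative = inhibition: 0% = no-compound wells and -100% = no-enzyme wells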
Summary of the method: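 20 mM phosphate pH 7.0 + 0.01% (detergent screen) or 0.0001% Triton X-100; 5.3 nM AmpC reagent; cpd preinc 15 min RT; nitrocefin (800 uM stock) to start; A480 q20 s × 4 min; Activity was normalised to no-enzyme and no-compound control wells.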
Potency is read from the fitted curve at half-maximal effect; tags tell the direction and shape of the fitted curve.

UniProt P00811, sequence (P00811 whole entry, looked up): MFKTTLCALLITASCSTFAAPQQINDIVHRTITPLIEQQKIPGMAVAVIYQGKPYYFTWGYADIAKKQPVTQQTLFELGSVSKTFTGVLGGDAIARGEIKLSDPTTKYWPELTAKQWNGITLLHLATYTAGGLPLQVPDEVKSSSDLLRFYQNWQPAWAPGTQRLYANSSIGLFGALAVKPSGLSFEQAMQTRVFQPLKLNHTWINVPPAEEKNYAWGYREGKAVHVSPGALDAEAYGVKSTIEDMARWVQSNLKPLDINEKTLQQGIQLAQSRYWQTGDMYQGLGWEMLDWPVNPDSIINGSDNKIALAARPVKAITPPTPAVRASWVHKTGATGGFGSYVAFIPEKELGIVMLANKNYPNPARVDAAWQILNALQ

| SMILES | Potency | activity change, negative = inhibition |
| --- | --- | --- |
| CSC1=NSC2=NC(=O)/C(=C\c3coc4ccccc4c3=O)C(=N)N12 | inconclusive [inhibitor, partial curve, poor fit] | – |
| CCC1CN(C(=O)Nc2cc(C)cc(C)c2)c2ccccc2O1 (centres undefined) | – | inactive: -7.04% |
| O=C(O)c1ccc(CSc2nnc(-c3ccncc3)n2CC2CCCO2)cc1 (centres undefined) | inconclusive [inhibitor, full curve] | – |
| CC(=O)Oc1ccc(N(C(C)=O)S(=O)(=O)c2ccc3ccccc3c2)cc1 | inconclusive [inhibitor, partial curve, poor fit] | – |
| CSCC[C@H](NC(=O)[C@@H]1CSC2c3ccccc3C(=O)N21)C(=O)N1CCC[C@H]1CO (some centres undefined) | inconclusive [inhibitor, full curve] | – |
| O=C(O)CCc1nc2cccnc2n1Cc1ccccc1 | inconclusive [inhibitor, single point] | – |
| CCOC(=O)/C(=N/Nc1ccc(Cl)cc1)S(=O)(=O)c1ccc(Cl)cc1 | – | inactive: -1.43% |
| CCCCc1nnc(NC(=O)C(C)Sc2nc(N)cc(=O)[nH]2)s1 (centres undefined) | inconclusive [inhibitor, single point] | – |
| CN(CC(=O)Nc1cccc(F)c1)C(=O)C1CC(=O)N(Cc2ccco2)C1 (centres undefined) | inconclusive [inhibitor, full curve, poor fit] | – |
| CN1OC(COC(=O)c2ccccc2)CC1c1ccccc1 (centres undefined) | – | inactive: -21.7% |
| O=C(N/C(=C/c1cccnc1)C(=O)N1CCOCC1)c1ccccc1 | inconclusive [inhibitor, full curve] | – |
| O=C(Nc1ccc(-c2cccc(F)c2)cc1)C1CCCN(Cc2ccccn2)C1 (centres undefined) | inconclusive [inhibitor, full curve, poor fit] | – |
| N#C/C=C/N1CCN(C(=O)c2ccco2)CC1 | – | inactive: -2.05% |
| CCn1c(CC(=O)Nc2ccc(Cl)c(Cl)c2)nnc1SCc1ccc(C)cc1 | inconclusive [inhibitor, single point] | – |
| COc1cccc(OCc2nc3ccccc3n2CCOc2ccccc2C)c1 | inconclusive [inhibitor, single point] | – |
| CCc1cc(C(=O)c2ccccc2OC)c(N)s1 | inconclusive [inhibitor, full curve, poor fit] | – |
| Cc1c2ccccc2nc2c(F)c(NC(C)C)c(F)c(F)c12 | inconclusive [inhibitor, full curve, poor fit] | – |
| COc1ccc(C(CC(=O)c2ccc(C)cc2)Nc2ccc([N+](=O)[O-])cc2)cc1 (centres undefined) | inconclusive [inhibitor, full curve, poor fit] | – |
| Cc1c(NC(=O)OCc2ccccc2)c(=O)n(-c2ccccc2)n1C | inconclusive [inhibitor, full curve, poor fit] | – |
| CN(C)CCCNC(=O)C(=O)Nc1ccc2c(c1)N(S(=O)(=O)c1cccs1)CCC2 | inconclusive [inhibitor, single point] | – |
| CN(C)S(=O)(=O)c1ccc2c(c1)nnn2CCNC(=O)Nc1ccc(Br)cc1 | – | inactive: 14.7% |
| CCOC(=O)c1c(NC(=O)COC(=O)c2ccccc2NC)sc(C(=O)N(C)C)c1C | inconclusive [inhibitor, full curve] | – |
| CC(C)c1ccc(NC(=O)CSc2n[nH]c(=O)n2Cc2ccco2)cc1 | – | inactive: 4.73% |

| SMILES | Potency | activity change, negative = inhibition |
| --- | --- | --- |
| O=C(NCc1ccco1)c1cccc(Br)c1 | inconclusive [inhibitor, full curve, poor fit] | – |
| COc1ccc(N2CCN(S(=O)(=O)c3ccc(C(=O)NCc4ccco4)cc3)CC2)cc1 | inconclusive [inhibitor, single point] | – |
| CCOC(=O)C1CCCN(CCCc2ccccc2)C1 (centres undefined) | inconclusive [inhibitor, partial curve, poor fit] | – |
| Cc1ccc(OCC(=O)N/N=C/c2cccnc2)cc1 | inconclusive [inhibitor, partial curve] | – |
| Cc1ccc(C(=O)OCC(=O)N2C(C)CCCC2C)cc1S(=O)(=O)N1CCCCC1 (centres undefined) | inconclusive [inhibitor, full curve, poor fit] | – |
| COCc1cc(C)nc(SCC(=O)Nc2cccc(C)c2C)c1C#N | – | inactive: -6.43% |
| O=C(CC1OC(=O)c2ccccc21)Nc1cc(Cl)ccc1N1CCCC1 (centres undefined) | inconclusive [inhibitor, partial curve] | – |
| Cc1ccc(-c2c(C)n3c4c(=O)n(C)c(=O)n(C)c4nc3n2-c2cccc(O)c2)cc1 | – | inactive: -2.28% |
| CCOc1ccc(C(=O)N/N=C/c2cccc3cccnc23)cc1 | – | inactive: 0.799% |
| COc1cccc(/C=N/NC(=O)c2cnn(-c3ccccc3)c2N)c1 | – | inactive: 1.96% |
| CN(C)/C=C(/C#N)C(=O)c1cccc(Oc2ccc(C(C)(C)C)cc2)c1 | inconclusive [inhibitor, single point] | – |
| COc1ccc(OC2C(=O)N(c3ccc(C)c(C)c3)C2c2ccc(OC)c(OC)c2)cc1 (centres undefined) | inconclusive [inhibitor, full curve, poor fit] | – |
| O=C(N/N=C/c1coc2ccccc2c1=O)c1cc(Br)c(O)c(Br)c1 | inconclusive [inhibitor, full curve] | – |
| O=S1(=O)CC(O)C(NCCO)C1 (centres undefined) | inconclusive [inhibitor, full curve, poor fit] | – |
| O=C(Nc1ccc2c(c1)nc1n2CCCCC1)c1cc(S(=O)(=O)N2CCOCC2)ccc1Cl | inconclusive [inhibitor, full curve] | – |
| COc1ccc(C2(c3ccc(OC(C)=O)cc3OC(C)=O)CC(c3ccccc3)NC(=S)N2)cc1 (centres undefined) | inconclusive [inhibitor, full curve, poor fit] | – |
| O=C(CN1c2cccc3cccc(c23)S1(=O)=O)NCc1ccc(Cl)cc1 | inconclusive [inhibitor, single point] | – |
| COc1ccc(CC(=O)NCc2nc3cccnc3n2Cc2ccc(C)cc2)cc1 | – | inactive: -2.48% |
| COc1ccc(Cl)cc1NC(=O)CSc1nc(=O)n(CCN(C)C)c2c1CCCC2 | – | inactive: -15.6% |
| C=CCN1C(=O)C(Cc2ccc(OCC)cc2)S/C1=N\N=C\c1cccs1 (centres undefined) | inconclusive [inhibitor, single point] | – |
| Cn1c(C(=O)NC2CCCCC2)cc2c(=O)n(C)c3ccccc3c21 | inconclusive [inhibitor, full curve, poor fit] | – |
| Cc1ccc(OCc2cc(C(=O)N3CC4C[C@@H]5CC3C[C@H](C4)C5)no2)cc1C | inconclusive [inhibitor, partial curve] | – |
| O=C(NCCN1CCCC1)c1ccc(Cn2c(=S)[nH]c3ccc(Br)cc3c2=O)cc1 | – | inactive: 4.38% |

| SMILES | Potency | activity change, negative = inhibition |
| --- | --- | --- |
| CCc1ccccc1NC(=O)Nc1cccc(F)c1 | – | inactive: 0.29% |
| COc1ccc(NC(=O)CSc2nc3cc(OC)c(OC)cc3c3nc(-c4ccccc4)nn23)cc1Cl | – | inactive: 6.29% |
| Cc1cc(C)c(S(=O)(=O)N(C)Cc2cnn(C)c2)c(C)c1 | inconclusive [inhibitor, single point] | – |
| Cc1cccc(Nc2nc(N)c(C#N)c(CC#N)c2C#N)c1 | – | inactive: -4.82% |
| Brc1cccc(OCCN2CCOCC2)c1 | inconclusive [inhibitor, partial curve, poor fit] | – |
| Cc1oc(/N=C/c2ccc(Cl)cc2Cl)c(C#N)c1C | inconclusive [inhibitor, partial curve, poor fit] | – |
| O=C(O)/C=C/C(=O)N1N=C(c2ccco2)CC1c1ccco1 (centres undefined) | – | inactive: 0.531% |
| CC(=O)Nc1cccc(Oc2ncnc3scc(-c4ccc(C)cc4)c23)c1 | inconclusive [inhibitor, full curve] | – |
| CSC1=NCCN1C(=O)c1ccc(C)cc1 | inconclusive [inhibitor, full curve, poor fit] | – |
| Cc1cccc(N/C=C(\[N+](=O)[O-])S(=O)(=O)c2ccccc2)c1C | inconclusive [inhibitor, full curve] | – |
| CN(C)c1ccc(NC(=O)CN2C(=O)CN=C(c3ccccc3)c3ccccc32)cc1 | – | inactive: -10.9% |
| CCn1c(CC(=O)Nc2ccccc2F)nnc1SCC(=O)N1CCN(c2ccccc2)CC1 | inconclusive [inhibitor, partial curve] | – |
| N/C(COc1cccc(Cl)c1)=N\O | – | inactive: -9.99% |
| CCOc1ccc(NCC2CCOC(C)(C)C2)cc1 (centres undefined) | inconclusive [inhibitor, full curve, poor fit] | – |
| CCOP(=O)(OCC)C1(O)C(=O)Nc2ccccc21 (centres undefined) | inconclusive [inhibitor, full curve, poor fit] | – |
| CSc1nc(-c2ccccc2)nc(N)c1C(C)=O | – | inactive: 2.6% |
| CCN(CC)C(=O)CSc1nnc(-c2cc3ccccc3cc2O)n1CC | inconclusive [inhibitor, full curve, poor fit] | – |
| CCC1CCCCN1C(=S)Nc1ccc(C(C)=O)cc1 (centres undefined) | inconclusive [inhibitor, full curve, poor fit] | – |
| O=C(NC(=S)NNC(=O)c1ccccc1O)c1ccco1 | inconclusive [inhibitor, full curve] | – |
| CCOC(=O)c1cc(S(=O)(=O)N2CCN(c3cc(C)ccc3C)CC2)[nH]n1 | – | inactive: 20.6% |
| O=C(CN1CCN(S(=O)(=O)c2ccc(F)cc2)CC1)NCc1cccs1 | inconclusive [inhibitor, partial curve] | – |
| COC(=O)C1CCN(C(=O)Cc2ccc(C)cc2)CC1 | inconclusive [inhibitor, full curve, poor fit] | – |
| Cc1ccc(NC(=O)Cn2nc([N+](=O)[O-])c(Br)c2C)cc1C | inconclusive [inhibitor, partial curve, poor fit] | – |
